Results reported in the antibiotic and cytotoxicity screens of Wong et al. (2023).
The other results are listed elsewhere or left out.

Test system: S. aureus RN4220
Test: growth inhibition call (relative growth <= 0.2)
Conditions: 50 µM

Compound | growth inhibition call
C[C@@H]1CN([C@H](C)CO)S(=O)(=O)c2ccc(C#CC3CC3)cc2O[C@@H]1CN(C)C(=O)c1cccc(F)c1 | inactive
N=C(N)c1ccc(OCCCCCOc2ccc(C(=N)N)cc2)cc1.O=S(=O)(O)CCO.O=S(=O)(O)CCO | active
CC(C)NC(=O)N(C)C[C@@H]1Oc2ccc(NC(=O)Nc3ccc4c(c3)OCO4)cc2C(=O)N([C@@H](C)CO)C[C@@H]1C | inactive
CNCc1n[nH]c2c1CCC2 | inactive
C[C@H](CO)N1C[C@H](C)[C@@H](CN(C)C(=O)Nc2cccc(F)c2)Oc2ncc(Br)cc2C1=O | inactive
C[C@H](CO)N1C[C@H](C)[C@H](CN(C)C(=O)Nc2ccc3c(c2)OCCO3)OCc2cnnn2CCCC1=O | inactive
COC(=O)CCCCCCC(=O)N/N=C/[C@H](O)[C@@H](O)[C@H](O[C@@H]1O[C@H](CO)[C@H](O)[C@H](O)[C@H]1O)[C@H](O)CO | inactive
O=C(C[C@H]1CC[C@H]2[C@@H](COC[C@H](O)CN2C(=O)c2cnccn2)O1)NCc1ccc(Oc2ccccc2)cc1 | inactive
O=C(Cc1ccncc1)NCC[C@@H]1CC[C@@H](NC(=O)C2CCOCC2)[C@H](CO)O1 | inactive
OCCN1C[C@@H](O)[C@@H](O)[C@@H](O)[C@@H]1CO | inactive
CCCC(=O)Nc1ccc2c(c1)C(=O)N(C)C[C@@H](OC)[C@H](C)CN(Cc1ccc(-c3ccccn3)cc1)[C@@H](C)CO2 | inactive
C[C@@H]1CN([C@H](C)CO)C(=O)Cc2cc(NS(=O)(=O)c3ccccc3)ccc2O[C@H]1CN(C)CC1CC1 | inactive
C[C@@H]1CCCCO[C@H](CN(C)CC2CC2)[C@H](C)CN([C@@H](C)CO)C(=O)c2cc(NC(=O)CCC(F)(F)F)ccc2O1 | inactive
Cc1ccc(S(=O)(=O)N(C)C[C@H]2Oc3ccc(NS(=O)(=O)c4c(C)noc4C)cc3CC(=O)N([C@@H](C)CO)C[C@@H]2C)cc1 | inactive
C[C@@H]1CCCCO[C@H](CN(C)C(=O)Nc2ccc(F)cc2)[C@H](C)CN([C@@H](C)CO)C(=O)c2cc(NS(=O)(=O)c3ccc(Cl)cc3)ccc2O1 | inactive
C[C@@H]1CN([C@@H](C)CO)C(=O)c2cc(NC(=O)C3CCCCC3)ccc2O[C@@H](C)CCCCO[C@H]1CN(C)C(=O)c1ccncc1 | inactive
Cc1noc(C)c1S(=O)(=O)Nc1ccc2c(c1)C(=O)N([C@H](C)CO)C[C@H](C)[C@@H](CN(C)CC1CCCCC1)OCCCC[C@H](C)O2 | inactive
CC(C)NC(=O)Nc1ccc2c(c1)CC(=O)N([C@@H](C)CO)C[C@@H](C)[C@H](CN(C)C(=O)Nc1ccc3c(c1)OCO3)O2 | inactive
Cc1ccc(S(=O)(=O)Nc2ccc3c(c2)C(=O)N([C@@H](C)CO)C[C@@H](C)[C@H](CN(C)Cc2ccc(C(F)(F)F)cc2)O3)cc1 | inactive
C[C@@H]1CCCCO[C@@H](CN(C)C(=O)Nc2ccccc2)[C@H](C)CN([C@H](C)CO)C(=O)c2cc(NC(=O)c3ccncc3)ccc2O1 | inactive
Cc1cc(O)c2c(c1)Cc1cccc(O)c1C2=O | inactive
O=C(NC1CCC1)[C@H]1[C@H](CO)[C@H]2Cn3c(cccc3=O)[C@H]2N1CC1CCOCC1 | inactive
CN1CCN(C(=O)C[C@@H]2CC[C@H]3[C@@H](COC[C@H](O)CN3Cc3ccc(Oc4ccccc4)cc3)O2)CC1 | inactive
C[C@@H]1CN([C@H](C)CO)C(=O)Cc2cc(NS(=O)(=O)c3ccc(Cl)cc3)ccc2O[C@H]1CN(C)Cc1ccc(Cl)c(Cl)c1 | inactive
N#Cc1ccccc1C#CCO | inactive
COCC(=O)Nc1ccc2c(c1)C(=O)N(C)C[C@@H](OC)[C@@H](C)CN(C(=O)Cc1ccccn1)[C@H](C)CO2 | inactive
COc1cc([C@H]2OC[C@](O)(Cc3ccc(O[C@@H]4O[C@H](CO)[C@@H](O)[C@H](O)[C@H]4O)c(OC)c3)[C@@H]2CO)ccc1O | inactive
